Assay results reported in PMC4336329 (PLoS ONE, 2015).
Out of some 310,000 compounds screened, about 2,200 (0.71%) showed an effect of 50% or more. Effects have a minus sign here. Some of the results follow.

Target: human ether-à-go-go-related gene (hERG) potassium channel (human, UniProt Q12809)
Test: primary screen, population patch clamp on CHO cells stably expressing hERG

Chain of human ether-à-go-go-related gene (hERG) potassium channel (Q12809 whole entry, looked up): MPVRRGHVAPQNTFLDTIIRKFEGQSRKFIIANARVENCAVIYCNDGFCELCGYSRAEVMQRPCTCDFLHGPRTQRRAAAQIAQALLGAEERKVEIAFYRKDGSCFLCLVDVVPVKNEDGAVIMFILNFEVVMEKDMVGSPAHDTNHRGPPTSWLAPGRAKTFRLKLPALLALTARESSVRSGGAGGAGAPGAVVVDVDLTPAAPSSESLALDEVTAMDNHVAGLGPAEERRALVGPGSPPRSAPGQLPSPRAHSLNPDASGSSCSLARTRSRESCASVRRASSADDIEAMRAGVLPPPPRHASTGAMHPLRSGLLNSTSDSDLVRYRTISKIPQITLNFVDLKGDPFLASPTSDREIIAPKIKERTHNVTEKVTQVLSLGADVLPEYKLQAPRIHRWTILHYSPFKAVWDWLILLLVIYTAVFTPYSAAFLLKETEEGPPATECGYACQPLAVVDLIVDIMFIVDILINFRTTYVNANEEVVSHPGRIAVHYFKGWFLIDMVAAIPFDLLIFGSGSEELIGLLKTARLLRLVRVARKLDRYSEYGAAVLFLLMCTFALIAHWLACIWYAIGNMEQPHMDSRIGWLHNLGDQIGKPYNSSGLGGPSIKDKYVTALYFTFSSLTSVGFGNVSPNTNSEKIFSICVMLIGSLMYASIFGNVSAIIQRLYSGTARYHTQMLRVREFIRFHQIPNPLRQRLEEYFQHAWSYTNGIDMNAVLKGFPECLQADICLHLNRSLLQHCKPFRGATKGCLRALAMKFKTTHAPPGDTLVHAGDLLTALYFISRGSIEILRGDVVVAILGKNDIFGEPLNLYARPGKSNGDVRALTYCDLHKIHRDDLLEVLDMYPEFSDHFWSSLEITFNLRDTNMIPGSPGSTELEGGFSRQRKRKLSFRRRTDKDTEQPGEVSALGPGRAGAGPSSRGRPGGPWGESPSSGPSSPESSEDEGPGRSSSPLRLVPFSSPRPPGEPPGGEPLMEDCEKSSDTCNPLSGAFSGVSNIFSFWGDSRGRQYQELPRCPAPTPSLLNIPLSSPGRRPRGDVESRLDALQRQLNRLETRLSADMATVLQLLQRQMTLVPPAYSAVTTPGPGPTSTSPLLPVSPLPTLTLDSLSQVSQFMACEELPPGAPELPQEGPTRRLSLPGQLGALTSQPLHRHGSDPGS

SMILES	hERG current change (%, negative = inhibition) at 1uM
COc1ccc(C2NC(=O)c3ccccc3O2)cc1 (stereo not shown)	-1.51%
CC(=O)c1cccc(NC(=O)N2CCCC2C(=O)Nc2ccc3c(c2)OCO3)c1 (stereo not shown)	10.6%
Cc1nc2ccc(NC(=O)CCS(=O)(=O)c3ccc(Cl)cc3)cc2s1	0.701%
COc1ccc(CC(=O)Nc2cccc(-c3ccc4nnc(C)n4n3)c2)cc1OC	9.37%
CN1C(=O)N(C)C2C1N(C)S(=O)(=O)N2C (stereo not shown)	16.7%
COc1ccccc1C(=O)N/N=C1/NC(=O)CC(C(=O)Nc2ccccc2)S1 (stereo not shown)	12.9%
O=C(c1cccc(Br)c1)c1conc1C(=O)c1ccco1	6.8%
Cc1cc(C)n2nc(NCc3cccc(Br)c3)nc2n1	-32.1%
O=C(c1ccccc1)c1cn[nH]c1-c1ccccc1O	4.86%
COc1ccc(S(=O)(=O)N2CCN(Cc3cccc([N+](=O)[O-])c3)CC2)cc1	2.62%
COCCCNC(=O)CCn1c(=O)c2ccccc2n(CC(=O)Nc2cc(Cl)ccc2C)c1=O	2.79%
NC(=O)/C(=C\c1ccccc1)NC(=O)c1ccc(NC(=O)c2ccccc2)cc1	12.6%
CNC(=S)Nc1ccc([N+](=O)[O-])cc1C	16.4%
CCN(CC(=O)Nc1c(F)cccc1F)C(=O)c1ccccn1	9.03%
Cc1cccc(Oc2ccc(N)cc2)c1	8.48%
Cc1ccc(C)c(CN2C(=O)COc3ccc(C(=O)c4ccccc4C(=O)O)cc32)c1	13.8%
O=C(Nc1ccccc1-c1nnn(CC(=O)N2CCc3ccccc3C2)n1)C1CCC1	-14%
COc1ccc(N2CCN(C3CCCCC3NS(=O)(=O)c3ccc(Cl)cc3)CC2)cc1 (stereo not shown)	4.01%
C/C(=N\NC(=O)CCC(=O)N/N=C(\C)c1ccc(C)o1)c1ccc(C)o1	10.5%
O=C(CN1C(=O)c2cccc3cccc1c23)NC1CCCCC1	9.52%
COC(=O)c1cccc(COC(=O)c2cc3ccccc3oc2=O)c1	14.1%
O=C(Cn1nc(-c2ccccc2Cl)ccc1=O)Nc1ccc(Br)cc1	5.05%

SMILES	hERG current change (%, negative = inhibition) at 1uM
CCOC(=O)c1ccc(S(=O)(=O)Nc2cc(C(C)(C)C)no2)cc1	12.5%
Cc1ccc(C)c(N2CCN(S(=O)(=O)c3ccc(-c4ccc(=O)[nH]n4)o3)CC2)c1	11.4%
O=C(Nc1ccc([N+](=O)[O-])cc1)OCCc1ccccn1	7.13%
O=C(NC1(C(F)(F)F)NC(=O)N(c2ccc(F)c(Cl)c2)C1=O)c1ccncc1 (stereo not shown)	0.442%
COc1ccccc1CNC(=O)[C@@H]1CCCN1S(=O)(=O)c1ccccc1F	22.4%
O=C(Cn1cc(C(F)(F)F)ccc1=O)N/N=C/c1cccc(Cl)c1	-0.543%
O=C(CSc1ccc2nnc(-c3ccccn3)n2n1)Nc1ccccc1F	4.85%
O=C(CSc1nnc(-c2cnccn2)n1Cc1ccco1)c1ccc2ccccc2c1	-5.09%
COc1ccc(S(=O)(=O)N2CCN(Cc3cccc(OC)c3)CC2)cc1	5.04%
CCOC(=O)c1ccccc1NC(=O)COC(=O)CCC(=O)N1CCOCC1	6.94%
CCCN(CC1CCCO1)C(=O)c1cc(COc2ccc(F)cc2F)on1 (stereo not shown)	4.46%
COc1ccc(N(C(=O)c2cnccn2)C(C(=O)NCc2ccccc2)c2ccc(O)cc2)cc1 (stereo not shown)	6.91%
Br.Cc1ccc(S(=O)(=O)CCSC(=N)N)cc1	7.72%
CC1(C)NC(=O)N(CC(=O)N2CCN(S(=O)(=O)c3ccccc3F)CC2)C1=O	13.2%
O=C(NCc1ccccn1)c1n[nH]c(=O)c2ccccc12	17.4%
CCN1C(=NCc2cc(OC)c(OC)c(OC)c2)N[C@@H](c2ccccc2)[C@H](C(=O)OC)[C@H]1C	11.6%
CC(C)(C)C(=O)CNS(=O)(=O)c1ccc(S(=O)(=O)NC2CC2)cc1	4.18%
O=C(CCC(=O)Nc1ccc(F)cc1)N/N=C/c1cccc(Br)c1	9.59%
CCOC(=O)N1CCN(CCC(=O)Nc2cc([N+](=O)[O-])ccc2OC)CC1	-1.82%
CC(C)(C)NC(=O)C(OC(=O)c1cccs1)c1ccc(C#N)cc1 (stereo not shown)	8.44%
O=C(N/N=C1\C/C(=N\NC(=O)c2ccncc2)c2ccccc21)c1ccncc1	3.72%
CCOc1ccc(-n2c(C)nc3cc(C(=O)NCCCN4CCOCC4)ccc32)cc1	-1.64%

SMILES	hERG current change (%, negative = inhibition) at 1uM
COC(c1ccccc1)c1nnc(CCC(=O)NCc2cccc(-n3cccn3)c2)o1 (stereo not shown)	4.04%
CCOCCCNC(=O)C(c1ccc(C)cc1)N(Cc1cccs1)C(=O)c1ccccc1O (stereo not shown)	7.18%
CCOc1ccc(NC(=O)CSc2nc(=O)n(Cc3cccnc3)c3c2CCC3)cc1	5.84%
CC(C)N(Cc1nnc(-c2ccc(Cl)cc2)o1)C(=O)C1=COCCO1	6.57%
O=C(c1cc(F)ccc1F)C1CCCN(Cc2cccn2-c2ccccn2)C1 (stereo not shown)	-83.1%
O=C(NCc1ccccn1)C1CCN(C(=O)c2cc3sccc3n2Cc2ccc(F)cc2)CC1	3.64%
COc1nc(/C=C/N(C)C)c([N+](=O)[O-])c(OC)n1	13.2%
COc1ccc(C(=O)Nc2ccccn2)cc1	12.3%
CCCOc1ccc(C(=O)CCNC(Cc2c[nH]c3ccccc23)C(=O)O)cc1 (stereo not shown)	15.5%
CC(=O)Nc1ccc(S(=O)(=O)NCC(=O)N2CCN(S(=O)(=O)c3cccs3)CC2)cc1	8.45%
Cn1c(SCC2CCCO2)nnc1-c1ccc([N+](=O)[O-])cc1 (stereo not shown)	-8.05%
Cc1ccccc1C(=O)O	2.47%
CCCCCn1c(=O)[nH]c2cc(C(=O)NCCCN(C)Cc3ccccc3)ccc2c1=O	12.3%
CCOc1ccc2sc(NS(=O)(=O)c3ccc(N)cc3)nc2c1	14.7%
Cc1ccc(C(=O)NC(O)C(Cl)Cl)cc1 (stereo not shown)	9.77%
CC(=O)Nc1ccc(S(=O)(=O)N2CCN(CC(=O)N3CCOCC3)CC2)cc1	13.3%
COc1ccccc1NC(=O)CCN1C(=O)C2C3CCC(C3)C2C1=O (stereo not shown)	11.9%
COc1ccccc1CCN1CCCC(CN(C)Cc2ccc(OCCO)cc2)C1 (stereo not shown)	5.87%
Cc1ccccc1CSc1nnc(Cn2c(=O)sc3ccccc32)n1C	5.52%
COc1ccc(Cl)cc1C(=O)Nn1cnnc1	10.6%
COc1nc(N)nc(N2CCOCC2)n1	11.3%
Cc1ccc(NC(=O)c2cc3cc(OC(F)(F)F)ccc3[nH]2)cc1	11.9%

SMILES	hERG current change (%, negative = inhibition) at 1uM
COc1cccc(C2CCCCN2Cc2nc(-c3ccc(C)o3)oc2C)c1 (stereo not shown)	10.7%
COc1ccc2c(C)cc(N3CCCCCC3)nc2c1.O=C(O)C(=O)O	-43.3%
Cc1ccccc1OCC(=O)NNC(=O)Cc1ccc(S(=O)(=O)N2CCOCC2)s1	7.82%
N#Cc1ccc(S(=O)(=O)NCC(=O)OCC(=O)NCCc2ccccc2)cc1	14.7%
O=C(NNC(=O)c1ccc(-c2ccccc2)cc1)Nc1ccccc1F	9.13%
Cc1cc(OCc2cccc(Cl)c2)c(C)cc1CN1CCOCC1	2.52%
O=C(Nc1nc2ccccc2c(=O)[nH]1)c1ccccc1SCc1ccccc1	17.6%
CN1CCc2c(sc(N)c2C(N)=O)C1	10.8%
COc1ccc(S(=O)(=O)N2CCC3(CC2)CC(=O)c2ccccc2O3)cc1C	4.71%
COc1ccc(C(=O)Nc2ccc(Cl)c(S(=O)(=O)Nc3ccccc3OC)c2)cc1	-3.45%
Cl.c1ccc(CN2CCN(c3nc(NCc4ccco4)c4ccccc4n3)CC2)cc1	-54.5%
COCCCNC(=O)C1CCC(CNS(=O)(=O)c2ccc(Cl)cc2)CC1 (stereo not shown)	-0.312%
COc1ccc(CCCc2nnc(SCC(=O)Nc3cc(C)c(C)cc3Br)o2)cc1	2.85%
O=C(NCC1CCCO1)c1ccc(OC2CCN(C(=O)C3CC3)CC2)cc1 (stereo not shown)	11.4%
CCOCc1nc(C)c(Cl)c(NS(=O)(=O)c2ccc(N)cc2)n1	14.7%
CS(=O)(=O)N1CCc2cc(NC(=O)c3ccc(Cl)cc3Cl)ccc21	15.5%
Cl.OC1(CN2CCOCC2)C2CC3CC(C2)CC1C3 (stereo not shown)	8.05%
O=C(Nc1ccccn1)C1CCN(S(=O)(=O)c2ccc(Cl)cc2)CC1	11.1%
COc1ccc2c(c1)O/C(=C\c1ccccc1O)C2=O	21.2%
Oc1ccc(N=Cc2c(O)ccc3ccccc23)cc1	13.2%
COc1ccc(C(=O)OCn2nnc3ccccc3c2=O)cc1[N+](=O)[O-]	1.82%
CCCCOc1ccc(NC2=NC3(CCCC3)N=C(N)N2)cc1	15.9%
